Reference: the supplement of paper PMC11417369
The list shows a part of the results.

tested on: PfSIP2 AP2 domain 1 (GST-tagged); assay: gcPBM binding intensity (ln(normalized median fluorescence intensity)); higher = stronger DNA binding
Outline: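 The binding buffer was 1× PBS containing 1% milk, 0.2 mg/ml BSA, 0.5% salmon testes DNA and 0.03% Triton X-100. In it, GST-tagged P. falciparum DNA-binding domains expressed in E. coli were applied for 1 h to an Agilent 4 × 180k array of primer-extended double-stranded 36-bp intergenic genomic probes plus negative controls. Binding intensity, read with Alexa488 anti-GST antibody and a 488 nm scan, is the highest Masliner-normalised natural-log median intensity across replicate spots of either probe orientation.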

Row | Sequence | gcPBM binding intensity (ln)
1 | AGTAGATTTTTATTAGTGCATTTTATACTACAAAAA | 8.89
2 | CATTAGCATTTTATTACACACAATAAATTAGAAGTA [CACACA_site7837] | 7
3 | TTTTAAAACAATGAGATTCCTTTCTTTTTTTCTTTT [CACACA_negctrl_site1320] | 6.31
4 | ATATTTATTTATATCATACACACTAATATGTATATT [CACACA_site7576] | 7.09
5 | TATCCCTTAGAATACACACCCATATGAGGGTGAACT [CACACA_site5610] | 6.73
6 | CTTAATGATAAATACATACACACAAAAAATAATATA [CACACA_site2577] | 7.09
7 | ATATTCTCTTAAATATGTACGTATGTATATATATAT [XGTACX_site5885] | 8.51
8 | CGCAAAACAATGATACGTACATATATATATATATAT [XGTACX_site5883] | 9.45
9 | ATTCTTAAATGTGGTTGTACATATTATCACCTTTAA [XGTACX_site8188] | 6.9
10 | TTTTTAATTTTATATACACACATAAAAGATATGAAG [CACACA_site7470] | 6.96
11 | TAATTCTTTATTTTTCGTACGTAAAACAAAAAATAT [XGTACX_site862] | 7.16
12 | AATGTAAAGAACAAAACATGCAACTAGTTTACTTTT [TGCATGCA_site841] | 6.69
13 | TAGAAAAAAGATAGCACACACGGCCCAATATATATA [CACACA_site5354] | 7.42
14 | TAAGTATATAAAATTACACACTATTTTTTTTCAAGT [CACACA_site1792] | 6.78
15 | TCGAATATCTTATAGGTGCATCATAAATACATATGT | 10.8
16 | TTAATTTCGAATTATTGTACATTAATATATCTACAG [XGTACX_site3314] | 6.89
17 | AAAACAAATAGACACGCACACAAAAAAAAAAAAAAA [CACACA_site801] | 7.11
18 | ATATATATATATATATGTACATAAATATAAATTTAA [XGTACX_site8715] | 9.47
19 | GAATAAAAAAAAAAAAAAATTTATTTTATAATAAAA [CACACA_negctrl_site1514] | 6.65
20 | ATGCAATAATAATGGAGTACATATTAATATTGATCA [XGTACX_site2312] | 6.95
21 | AAAAAATATATTAAGGCACACACATACATATATATA [CACACA_site9239] | 7.39
22 | CCTTTTGGATGAAAGTGTACAGGTGAGAAAAATTCC [XGTACX_site3358] | 6.76
23 | TACATCGGTATATAAACACACAACAAAAATGCTTAC [CACACA_site5983] | 7.05

Row | Sequence | gcPBM binding intensity (ln)
24 | AAAATAATTAAAAAAAGTACTCGTAATATAAATATA [XGTACX_site4967] | 6.98
25 | ACAAATAAATAAAAATGTACAAATGAATACATCTTA [XGTACX_site3780] | 6.95
26 | TTAAAAGATATTACATGTACATATTCAATATATGTA [XGTACX_site5895] | 6.74
27 | TTTTTTTAAAAAAACAAAAAAAAAAAAAATATAAAA [TGCATGCA_negctrl_site511] | 6.73
28 | TATGAAAATTAAGTTTGTACACAAGTGGAAAAAAAA [XGTACX_site6129] | 6.85
29 | TACATTTATAATAATACACACATAAATTTACATTTT [CACACA_site3463] | 7.11
30 | AAAAAAAAAAAAAAAAAAAAAAAAAAAAAAAAAAAT [CACACA_negctrl_site882] | 9.05
31 | TTTGTTATTTATTAGTGTACAAAAAAGCATTTCAAA [XGTACX_site8729] | 7.15
32 | AAATTAAATAAATTTACACACTAAAAGTTACCTATA [CACACA_site6623] | 6.81
33 | ATATAAAGAAATTAATTTTTCAACAATAAAAATATA [CACACA_negctrl_site1262] | 6.81
34 | AATAATGTATAATGATGTACAAAAAAGGAAGACATA [XGTACX_site2474] | 7.25
35 | ATATTTTGTAATATTTGTACATATATTATACATATA [XGTACX_site963] | 7.12
36 | TTTTTTTTGCGTACAGTGCAAATTTATTTACTATTC | 8.36
37 | AAATATAATAATATATGTACATATATATATATATAT [XGTACX_site6980] | 9.73
38 | AAAAAAATATATATATATATATATATATATATATAT [TGCATGCA_negctrl_site7] | 9.58
39 | CGTGGGAGCGGACACACACACACACCCATATATATA [CACACA_site4340] | 7.57
40 | TATGTATTAAATTTTACACACATGATTCTCTATATG [CACACA_site8720] | 6.88
41 | TATACATATTATATATGTACACATATTATATGTATA [XGTACX_site5851] | 7.05
42 | AATTTAAAAGCTTGTGGTACTTTTGCTCTTCCTTTG [XGTACX_site3148] | 6.64
43 | TCAACAAATAAACTTTGTACATATATACAAAATATA [XGTACX_site4447] | 6.88
44 | ATACAAAAAAGAAGGACACACAGAAGTAACATGTTA [CACACA_site3074] | 6.79
45 | ATGAATTATATATTATGTACATATAATTAAAATATA [XGTACX_site7140] | 6.98
